Our source for the binding signal values is paper PMC9911399, “Two distinct binding modes provide the RNA-binding protein RbFox with extraordinary sequence specificity”.

First the molecules themselves.
T1: RBFOX1 RRM (Homo sapiens, UniProt Q9NWB1 109-208)
T1 sequence: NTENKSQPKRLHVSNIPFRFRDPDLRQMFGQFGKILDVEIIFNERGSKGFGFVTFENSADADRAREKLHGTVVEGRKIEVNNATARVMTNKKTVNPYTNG

B1: CUCUCGC (DNA:RNA)
RNA: GGGAGACCGGAAUUCAGAUUGUCCCUCUCGCUUAAAUCCCGUCGUAGCCACCA
DNA 1: CAATCTGAATTCCGGTCTCCC
DNA 2: TGGTGGCTACGACGGGATT
B2: UUAUGUG (DNA:RNA)
RNA: B1 RNA with C25U, C27A, C29G, G30U, C31G
DNA 1: CAATCTGAATTCCGGTCTCCC
DNA 2: TGGTGGCTACGACGGGATT
B3: UCCCUUU (DNA:RNA)
RNA: B1 RNA with C25U, U26C, U28C, C29U, G30U, C31U
DNA 1: CAATCTGAATTCCGGTCTCCC
DNA 2: TGGTGGCTACGACGGGATT
B4: UGAGCUA (DNA:RNA)
RNA: B1 RNA with C25U, U26G, C27A, U28G, G30U, C31A
DNA 1: CAATCTGAATTCCGGTCTCCC
DNA 2: TGGTGGCTACGACGGGATT
B5: AGGCAGG (DNA:RNA)
RNA: B1 RNA with C25A, U26G, C27G, U28C, C29A, C31G
DNA 1: CAATCTGAATTCCGGTCTCCC
DNA 2: TGGTGGCTACGACGGGATT
B6: GUUAGUU (DNA:RNA)
RNA: B1 RNA with C25G, C27U, U28A, C29G, G30U, C31U
DNA 1: CAATCTGAATTCCGGTCTCCC
DNA 2: TGGTGGCTACGACGGGATT
B7: UUCGCCU (DNA:RNA)
RNA: B1 RNA with C25U, U28G, G30C, C31U
DNA 1: CAATCTGAATTCCGGTCTCCC
DNA 2: TGGTGGCTACGACGGGATT
B8: CCUAGUG (DNA:RNA)
RNA: B1 RNA with U26C, C27U, U28A, C29G, G30U, C31G
DNA 1: CAATCTGAATTCCGGTCTCCC
DNA 2: TGGTGGCTACGACGGGATT
B9: UUUCUAC (DNA:RNA)
RNA: B1 RNA with C25U, C27U, U28C, C29U, G30A
DNA 1: CAATCTGAATTCCGGTCTCCC
DNA 2: TGGTGGCTACGACGGGATT
B10: GGAUGCG (DNA:RNA)
RNA: B1 RNA with C25G, U26G, C27A, C29G, G30C, C31G
DNA 1: CAATCTGAATTCCGGTCTCCC
DNA 2: TGGTGGCTACGACGGGATT
B11: AGCGUCU (DNA:RNA)
RNA: B1 RNA with C25A, U26G, U28G, C29U, G30C, C31U
DNA 1: CAATCTGAATTCCGGTCTCCC
DNA 2: TGGTGGCTACGACGGGATT
B12: GGAAGGC (DNA:RNA)
RNA: B1 RNA with C25G, U26G, C27A, U28A, C29G
DNA 1: CAATCTGAATTCCGGTCTCCC
DNA 2: TGGTGGCTACGACGGGATT
B13: GAAAAGC (DNA:RNA)
RNA: B1 RNA with C25G, U26A, C27A, U28A, C29A
DNA 1: CAATCTGAATTCCGGTCTCCC
DNA 2: TGGTGGCTACGACGGGATT
B14: UUUGCUU (DNA:RNA)
RNA: B1 RNA with C25U, C27U, U28G, G30U, C31U
DNA 1: CAATCTGAATTCCGGTCTCCC
DNA 2: TGGTGGCTACGACGGGATT
B15: CGUCUAC (DNA:RNA)
RNA: B1 RNA with U26G, C27U, U28C, C29U, G30A
DNA 1: CAATCTGAATTCCGGTCTCCC
DNA 2: TGGTGGCTACGACGGGATT
B16: GCUGGCU (DNA:RNA)
RNA: GGGAGACCGGAAUUCAGAUUGUCCGCUGGCUUUAAAUCCCGUCGUAGCCACCA
DNA 1: CAATCTGAATTCCGGTCTCCC
DNA 2: TGGTGGCTACGACGGGATT
B17: UAUAUUG (DNA:RNA)
RNA: B16 RNA with G25U, C26A, G28A, G29U, C30U, U31G
DNA 1: CAATCTGAATTCCGGTCTCCC
DNA 2: TGGTGGCTACGACGGGATT
B18: AACGCCU (DNA:RNA)
RNA: B16 RNA with G25A, C26A, U27C, G29C
DNA 1: CAATCTGAATTCCGGTCTCCC
DNA 2: TGGTGGCTACGACGGGATT
B19: GCUAUUG (DNA:RNA)
RNA: B16 RNA with G28A, G29U, C30U, U31G
DNA 1: CAATCTGAATTCCGGTCTCCC
DNA 2: TGGTGGCTACGACGGGATT
B20: AUGCCCU (DNA:RNA)
RNA: B1 RNA with C25A, C27G, U28C, G30C, C31U
DNA 1: CAATCTGAATTCCGGTCTCCC
DNA 2: TGGTGGCTACGACGGGATT
B21: UAGGACG (DNA:RNA)
RNA: B16 RNA with G25U, C26A, U27G, G29A, U31G
DNA 1: CAATCTGAATTCCGGTCTCCC
DNA 2: TGGTGGCTACGACGGGATT
B22: CGCACGA (DNA:RNA)
RNA: B1 RNA with U26G, U28A, C31A
DNA 1: CAATCTGAATTCCGGTCTCCC
DNA 2: TGGTGGCTACGACGGGATT
B23: CCAGGAG (DNA:RNA)
RNA: B16 RNA with G25C, U27A, C30A, U31G
DNA 1: CAATCTGAATTCCGGTCTCCC
DNA 2: TGGTGGCTACGACGGGATT
B24: CGUUGCA (DNA:RNA)
RNA: B16 RNA with G25C, C26G, G28U, U31A
DNA 1: CAATCTGAATTCCGGTCTCCC
DNA 2: TGGTGGCTACGACGGGATT
B25: UACGUUG (DNA:RNA)
RNA: B1 RNA with C25U, U26A, U28G, C29U, G30U, C31G
DNA 1: CAATCTGAATTCCGGTCTCCC
DNA 2: TGGTGGCTACGACGGGATT
B26: GCAUCAU (DNA:RNA)
RNA: B16 RNA with U27A, G28U, G29C, C30A
DNA 1: CAATCTGAATTCCGGTCTCCC
DNA 2: TGGTGGCTACGACGGGATT
B27: AUCUAAC (DNA:RNA)
RNA: B1 RNA with C25A, C29A, G30A
DNA 1: CAATCTGAATTCCGGTCTCCC
DNA 2: TGGTGGCTACGACGGGATT
B28: AGAGUGU (DNA:RNA)
RNA: B16 RNA with G25A, C26G, U27A, G29U, C30G
DNA 1: CAATCTGAATTCCGGTCTCCC
DNA 2: TGGTGGCTACGACGGGATT
B29: UUAACUC (DNA:RNA)
RNA: B1 RNA with C25U, C27A, U28A, G30U
DNA 1: CAATCTGAATTCCGGTCTCCC
DNA 2: TGGTGGCTACGACGGGATT
B30: GCCCUAC (DNA:RNA)
RNA: B1 RNA with C25G, U26C, U28C, C29U, G30A
DNA 1: CAATCTGAATTCCGGTCTCCC
DNA 2: TGGTGGCTACGACGGGATT
B31: GACAAAU (DNA:RNA)
RNA: B16 RNA with C26A, U27C, G28A, G29A, C30A
DNA 1: CAATCTGAATTCCGGTCTCCC
DNA 2: TGGTGGCTACGACGGGATT

Numbering of substitutions follows the chain as printed; changes in the protein carry UniProt numbers. The list shows a part of the results.

The target of this assay is T1, RBFOX1 RRM. Put plainly: EMSA; HiTS-Eq, 1 nM pool, 10 min; buffer printed only for the single-RNA assays: 10 mM Tris pH 7.5, 150 mM NaCl, 3.4 mM EDTA, 0.001% NP-40, 30 C. The conditions noted are these: tags: His6 N-terminal (pET28a); label: 5' 32P. Summed up:
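A pool of RNA with 7 randomized nucleotides, 5′-radiolabelled and with DNA-annealed flanks, was equilibrated at 1 nM for 10 min in 50 µL with purified RbFox RRM, wild type or mutant, across increasing protein concentrations. Free RNA was separated by 8% native PAGE, excised, reverse-transcribed, barcoded by PCR and sequenced. Relative association constants were obtained from read-count changes of each RNA species versus the control reaction and normalised to the cognate motif.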
For the molecule B1, the binding signal was 0.00986 KA relative to UGCAUGU.
On to B2, for which the binding signal is 0.0206 KA relative to UGCAUGU.
Consider B3, for which the binding signal is 0.00154 KA relative to UGCAUGU.
As for B4, the binding signal is 0.015 KA relative to UGCAUGU.
The value for B5 was 0.0153 KA relative to UGCAUGU; that for B6 was 0.0115 KA relative to UGCAUGU; that for B7 was 0.0127 KA relative to UGCAUGU.
As for B8, the binding signal was 0.00931 KA relative to UGCAUGU.
The value for B9 was 0.0115 KA relative to UGCAUGU; that for B10 was 0.0222 KA relative to UGCAUGU.
Regarding B11, the binding signal is 0.0079 KA relative to UGCAUGU.
Take B12: the binding signal was 0.00795 KA relative to UGCAUGU.
Consider B13, for which the binding signal is 0.00277 KA relative to UGCAUGU.
B14: the binding signal was 0.0228 KA relative to UGCAUGU.
As for B15, the binding signal is 0.0022 KA relative to UGCAUGU.
For B16, the binding signal was 0.0261 KA relative to UGCAUGU.
Take B17: the binding signal is 0.0186 KA relative to UGCAUGU.
For the molecule B18, the binding signal is 0.00525 KA relative to UGCAUGU.
Consider B19, for which the binding signal was 0.0132 KA relative to UGCAUGU.
The value for B20 was 0.00532 KA relative to UGCAUGU; that for B21 was 0.00709 KA relative to UGCAUGU.
Turning to B22, the binding signal was 0.0204 KA relative to UGCAUGU.
With B23, the binding signal is 0.0104 KA relative to UGCAUGU.
As to B24, the binding signal was 0.0228 KA relative to UGCAUGU.
As for B25, the binding signal was 0.0217 KA relative to UGCAUGU.
The value for B26 was 0.0109 KA relative to UGCAUGU; that for B27 was 0.00288 KA relative to UGCAUGU.
The value for B28 was 0.0147 KA relative to UGCAUGU; that for B29 was 0.00361 KA relative to UGCAUGU.
The value for B30 was 0.00603 KA relative to UGCAUGU; that for B31 was 0.00361 KA relative to UGCAUGU.
